{
  "source": "patent US20110212845A1",
  "about": "“Biomarkers for predicting the sensitivity and response of protein kinase CK2-mediated diseases to CK2 Inhibitors” (priority 2009, published 2011)",
  "key": {"BxPC-3 cells": {"tested_on": "BxPC-3 cells", "assay": "Tube formation and migration", "assay_type": "cell-based", "conditions": "increasing concentrations"}, "[1]": {"tested_on": "human multiple myeloma cells", "assay": "CK2 signaling in human multiple myeloma cells", "assay_type": "cell-based"}, "[2]": {"tested_on": "CK2 kinase activity in U266, RPMI, OCI-MY1 and KMS11 multiple myeloma cell lines", "assay": "In vitro kinase assay of CK2 activity in multiple myeloma cell lines", "conditions": "10 μM; compared to untreated cells"}},
  "data": [
    {"smiles": "O=C(O)c1ccc2c(c1)nc(Nc1cccc(Cl)c1)c1ccncc12", "note": "[CX-4945]", "values": [
      {"measurement": "tube formation and migration", "setting": "BxPC-3 cells", "value": "significant effects on tube formation and migration"},
      {"measurement": "PARP cleavage (marker for cell apoptosis)", "setting": "[1]", "value": "increase PARP cleavage"},
      {"measurement": "phosphorylation of Akt S129 and S473", "setting": "[1]", "value": "reduced the phosphorylation of p-Akt S129 and S473"},
      {"measurement": "phosphorylation of NF-κB S529", "setting": "[1]", "value": "reduced the phosphorylation"},
      {"measurement": "phosphorylation of STAT3 Y705 and JAK2 Y1007/1008", "setting": "[1]", "value": "reduce the phosphorylation of p-STAT3 Y705 and p-JAK2 Y1007/1008"},
      {"measurement": "CK2 kinase activity in multiple myeloma cell lines", "setting": "[2]", "value": "significantly reduced CK2 kinase activity"}
    ]}
  ]
}
